Test results taken from PubChem BioAssay AID1508623 (National Center for Advancing Translational Sciences (NCATS), 2021).
Screen size: about 48,000 compounds; about 450 (0.94%) were called active. Another 19% or so got no clear call; they are omitted. Calls come from the whole dose curve; as a rule, active = well fitted inhibition curve with a large enough effect; inconclusive = small, poorly fitted or top-dose-only effect; inactive = no such curve, though single readings can be large or run the other way. The list shows a part of the results.

Experiment: Primary qHTS for Identification of Small Molecule Inhibitors of Huntingtin Promoter Activity; note: nearly all actives have a fitted effect of over 50% in size
Conditions: HEK293 HTT promoter firefly luciferase reporter (activity 0% = vehicle and -100% = no light), 24 h; series mostly up to 57.5 µM; activity change, negative = inhibition: at the top concentration
In short: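 Firefly luciferase readout (Dual-Glo, 10 min RT) after 24 h, 37 °C compound exposure (final up to 57.5 uM) of HEK293 reporter cells cultured 24 h beforehand; PTC124 at 50 uM final as control inhibitor; activity scaled vehicle 0%, zero RLU -100%.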

Activity change, negative = inhibition, inactive:
C[C@@H](c1ncncc1F)[C@](O)(Cn1cncn1)c1ccc(F)cc1F -13.5%, CN(C)c1oc(-c2ccc(COc3ccccc3)o2)nc1C#N -32.9%, COc1ccc(N2CCN(S(=O)(=O)CCNC(=O)c3cc(=O)c4ccccc4o3)CC2)cc1 -21.5%, Cc1cc(C)cc(NC(=O)CSc2nc(=O)[nH]c3c2CCC3)c1 -28.4%, COc1cc(NC(=O)Cn2ccn(-c3cc(C)cc(C)c3)c(=O)c2=O)cc(OC)c1 -2.48%, Cc1ccc(NC(=O)C(=O)NCC(c2ccc3c(c2)OCO3)N2CCN(C)CC2)c(C)c1 (configuration not stated) -19%, Cc1cc(C)cc(NC(=O)CSc2nc3ncccc3[nH]2)c1 -21%, Cc1ccc(NC(=O)C(Cc2ccccc2)NS(=O)(=O)c2ccc3c(c2)CCC(=O)N3)cc1 (configuration not stated) -11.9%, CS(=O)(=O)c1cccc(-c2nnc(NC(=O)c3ccc4c(c3)OCCO4)o2)c1 -5.87%, CCOC(=O)N1CCC(NC(=O)c2cnn(-c3ccc(C)cc3C)c2C2CCN(C(=O)OC(C)(C)C)CC2)CC1 -20.3%, CC(=O)Nc1cccc(Nc2nc3ccccc3n3c(C)nnc23)c1 81.2%, O=C(CN1CCCN(Cc2ccc(F)cc2)S1(=O)=O)Nc1ccc2c(c1)OCCO2 1.72%, CCCN(CCC)CCCNC(=O)Cn1ncc2c3ccccc3n(Cc3ccccc3F)c2c1=O 43.4%, CC(=O)c1nn(-c2ccc(OC(F)(F)F)cc2)nc1Nc1ccccc1 45.4%, CCc1nn(CCCC(=O)NCc2ccc(C)cc2)c(=O)c2cc3occc3n12 -13.6%, CCOc1ccccc1N(C)C(=O)Cn1nc(Cc2ccncc2)c2ccccc2c1=O -12.7%, Cc1c(NC(=O)c2ccc(C(C)(C)C)cc2)cccc1-c1cn(C)c(=O)c(Nc2ccc(C(=O)N3CCOCC3)cc2)n1 -16%, COc1ccccc1C(=O)OCc1cc(=O)n2nc(-c3cccs3)sc2n1 -0.637%, CCOc1ccc(-c2cc(NC(=O)Nc3ccc(Cl)cc3)c(C(=O)OC)s2)cc1 54.4%, CCOC(=O)c1c(NC(=O)CCCOc2ccc(C(C)(C)C)cc2)sc2c1CCCC2 -7.97%, COc1ccc(OC)c(NC(=O)c2cnc(N3CCCCC3)c3ccccc23)c1 -27.4%, Cc1cccc(C(c2sc3nc(-c4ccco4)nn3c2O)N2CCN(c3ccccc3F)CC2)c1 (configuration not stated) 9.27%, CCOC(=O)C1CCCN(S(=O)(=O)c2cc(Br)cc3c2N(C(C)=O)CC3)C1 (configuration not stated) -11.8%, CCc1ccc(NC(=O)[C@H](CSCc2ccccc2)N2Cc3ccccc3C2=O)cc1 -19.6%, O=C1COc2ccc(-c3cc(-c4ccccc4)c4c(n3)-c3ccccc3OC4)cc2N1 -4.98%, Cc1nn(-c2ccccc2)c2sc(C(=O)Nc3ccc(Br)cc3)cc12 -6.52%, CN1CCN(CCCN2c3ccccc3Sc3ccc(S(=O)(=O)N(C)C)cc32)CC1 -13.2%, CN(C)c1ccc(-c2nc(-c3cccs3)c(-c3cccs3)[nH]2)cc1 -46.7%, CCCn1c(SCC(O)c2ccccc2)nc2ccccc21 (configuration not stated) -3.46%, COc1cccc(CNC(=O)CCCn2ncn3c(cc4occc43)c2=O)c1 -19%, Cc1ccc(-c2noc(-c3ccccc3NC(=O)C3CC(=O)N(c4ccc(C)cc4)C3)n2)cc1 (configuration not stated) 33%, COc1cc2nc(Nc3cccc(C)c3)nc(N)c2cc1OC -16.1%, Cc1ccc(C(=O)NCC(c2ccco2)S(=O)(=O)c2cccs2)cc1C (configuration not stated) -18%, CC1=C(C(=O)NCc2ccccc2C)C2(CCCCCC2)OC1=O -1.74%, COC(=O)c1sc(-c2ccccc2)cc1NC(=O)Nc1ccc(Cl)cc1 -1.89%, COc1ccc(NC(=O)CCS(=O)(=O)c2ccc3c(c2)oc(=O)n3C)cc1OC 0.94%, O=C(Oc1ccc(F)cc1)c1nc(SCc2ccc(F)cc2)ncc1Cl 0.698%, Cc1ccc(-c2nc(SCC(=O)NCC3CCCO3)c3c(=O)n(C)c(=O)n(C)c3n2)cc1 (configuration not stated) 2.51%, CCOC(=O)CSC1=Nc2ccccc2C2=NC(CCC(=O)NCc3ccc(OC)cc3)C(=O)N12 (configuration not stated) -6.59%, Cc1ccccc1N1CCN(S(=O)(=O)c2ccccc2)CC1 8.54%, Oc1c(C(c2ccccc2F)N2CCN(c3ccccc3F)CC2)sc2nc(-c3ccco3)nn12 (configuration not stated) 12.3%, COc1ccccc1Cn1ccn(Cc2ccc(C)cc2)c(=O)c1=O -15.1%, CN(C)CC[C@H](c1ccc(Cl)cc1)c1ccccn1 -4.79%, COc1ccc(CNC(=O)CCC2N=C3c4ccccc4N=C(SCc4ccccc4F)N3C2=O)cc1 (configuration not stated) -7.47%, CN(C)CCCNC(=O)c1ccc(-c2cc(O)c3ncccc3c2)cc1 -17.4%, CCOC(=O)C(Cc1ccccc1)NC(=O)CCc1c(C)nc2nc(C)nn2c1C (configuration not stated) 3.64%, O=C(NC1CCCC1)c1ccc2c(=O)n(Cc3ccccc3)c(SCc3cccc([N+](=O)[O-])c3)nc2c1 -1.99%, COCCNC(=O)CSc1nc2cc3c(cc2c(=O)n1CCCC(=O)NCc1ccc2c(c1)OCO2)OCO3 -15.2%, Cc1ccccc1OCc1nc2c3cnn(-c4ccccc4F)c3ncn2n1 -1.8%, CCc1ccc(OCC(=O)Nc2cc(-c3ccc(C)cc3)no2)cc1 65.8%, COc1ccc(CNC(=O)CSc2ncc3c(n2)-c2cc(Cl)ccc2N(Cc2ccccc2)S3(=O)=O)cc1 -8.73%, Cc1ccc(Cl)cc1N1CCN(C(=O)Cn2c(-c3cccs3)cc3cc(F)ccc32)CC1 -23.5%, CCOC(=O)Cn1c(=O)cc(C(F)(F)C(F)(F)F)c2c(C)nn(CC)c21 -17.5%, Cc1c(Cl)cccc1NC(=O)N1CCOc2ccccc21 11.6%, COC(=O)c1sccc1S(=O)(=O)N1CCN(c2ccc(C)cc2C)CC1 -17.7%, Cc1ccc(OCC(=O)Nc2ccc3nc(SCC(=O)Nc4ccc(C)cc4C)sc3c2)cc1 8.94%, COc1cccc(NC(=O)CSc2ncc3c(n2)-c2ccc(Cl)cc2N(C)S3(=O)=O)c1 -22.1%, CCCNC(=O)c1ccccc1NC(=O)c1nsc2ccccc12 22.4%, CCOc1ccccc1NC(=O)C(=O)NCCc1sc2nc(-c3ccc(OC)cc3)nn2c1C -25.6%, Cc1ccc(NC(=O)NCCOCCn2c(=O)oc3ccccc32)cc1C -10.4%, COC(=O)c1ccc(NC(=O)CN2CCN(S(=O)(=O)c3ccc(Br)cc3)CC2)cc1 -26.8%, COc1ccc(S(=O)(=O)N(CC(=O)Nc2cc(C)ccc2OC)Cc2ccccc2)cc1 -39.4%
